Test results from the supplement of paper PMC9542798.

What was measured:
Test in all cases: minimum inhibitory concentration
Ampicillin = compound: CC1(C)S[C@@H]2[C@H](NC(=O)[C@H](N)c3ccccc3)C(=O)N2[C@H]1C(=O)O [Ampicillin]
Experimental: (§1)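 Broth microdilution MIC per ISO 10932 on precoated VetMIC Lact-1 plates (tylosin, vancomycin and ampicillin plates prepared manually) against lactic acid bacteria and bifidobacteria isolates. Plates were read visually after 48 h anaerobic incubation (bifidobacteria 72 h; enterococci and staphylococci 24 h aerobic) at species-specific temperatures of 30 or 37 °C. Values prefixed with < or > are outside the tested dilution range.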

Clindamycin = compound: CCC[C@@H]1C[C@@H](C(=O)N[C@@H]([C@H]2O[C@H](SC)[C@H](O)[C@@H](O)[C@H]2O)[C@H](C)Cl)N(C)C1 [Clindamycin]
Experimental: as §1

Erythromycin = compound: CC[C@H]1OC(=O)[C@H](C)[C@@H](O[C@H]2C[C@@](C)(OC)[C@@H](O)[C@H](C)O2)[C@H](C)[C@@H](O[C@@H]2O[C@H](C)C[C@H](N(C)C)[C@H]2O)[C@](C)(O)C[C@@H](C)C(=O)[C@H](C)[C@@H](O)[C@]1(C)O [Erythromycin]
Experimental: as §1

Tetracycline = compound: CN(C)[C@@H]1C(O)=C(C(N)=O)C(=O)[C@@]2(O)C(O)=C3C(=O)c4c(O)cccc4[C@@](C)(O)[C@H]3C[C@@H]12 [Tetracycline]
Experimental: as §1

Gentamicin = compound: CNC(C)C1CCC(N)C(OC2C(N)CC(N)C(OC3OCC(C)(O)C(NC)C3O)C2O)O1 [Gentamicin]
Experimental: as §1

Streptomycin = compound: CN[C@@H]1[C@H](O[C@H]2[C@H](O[C@H]3[C@H](O)[C@@H](O)[C@H](N=C(N)N)[C@@H](O)[C@@H]3N=C(N)N)O[C@@H](C)[C@]2(O)C=O)O[C@@H](CO)[C@H](O)[C@H]1O [Streptomycin]
Experimental: as §1

Neomycin = compound: NC[C@@H]1O[C@H](O[C@H]2[C@@H](O)[C@H](O[C@@H]3[C@@H](O)[C@H](N)C[C@H](N)[C@H]3O[C@H]3O[C@H](CN)[C@@H](O)[C@H](O)[C@H]3N)O[C@@H]2CO)[C@H](N)[C@@H](O)[C@@H]1O [Neomycin]
Experimental: as §1

Kanamycin = compound: NC[C@H]1O[C@H](O[C@H]2[C@H](O)[C@@H](O[C@H]3O[C@H](CO)[C@@H](O)[C@H](N)[C@H]3O)[C@H](N)C[C@@H]2N)[C@H](O)[C@@H](O)[C@@H]1O [Kanamycin]
Experimental: as §1

Chloramphenicol = compound: O=C(N[C@H](CO)[C@H](O)c1ccc([N+](=O)[O-])cc1)C(Cl)Cl [Chloramphenicol]
Experimental: as §1
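Note: isolates derived from commercial starter, protective, probiotic or feed-additive cultures, from fermented products, from human gut mucosa or feces, and from human milk or colostrum.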

Test System | minimum inhibitory concentration (Ampicillin) | minimum inhibitory concentration (Clindamycin) | minimum inhibitory concentration (Erythromycin) | minimum inhibitory concentration (Tetracycline) | minimum inhibitory concentration (Gentamicin) | minimum inhibitory concentration (Streptomycin) | minimum inhibitory concentration (Neomycin) | minimum inhibitory concentration (Kanamycin) | minimum inhibitory concentration (Chloramphenicol)
Lentilactobacillus parabuchneri IM1149 (strain group: non-starter strains) | 2 µg/mL | 0.25 µg/mL | 0.5 µg/mL | 32 µg/mL | 4 µg/mL | 64 µg/mL | 4 µg/mL | 128 µg/mL | 8 µg/mL
Lacticaseibacillus paracasei IM1283 (strain group: non-starter strains) | 1 µg/mL | 0.25 µg/mL | 0.12 µg/mL | 1 µg/mL | 2 µg/mL | 16 µg/mL | 4 µg/mL | 64 µg/mL | 4 µg/mL
Limosilactobacillus fermentum IM686 (strain group: human intestinal mucosa or faeces) | 0.5 µg/mL | 0.12 µg/mL | 1 µg/mL | 8 µg/mL | 2 µg/mL | 64 µg/mL | 2 µg/mL | 128 µg/mL | 16 µg/mL
Lactiplantibacillus plantarum IM1156 (strain group: non-starter strains) | 2 µg/mL | 2 µg/mL | 0.25 µg/mL | 8 µg/mL | 2 µg/mL | 32 µg/mL | 4 µg/mL | 64 µg/mL | 4 µg/mL
Pediococcus pentosaceus IM1054 (strain group: non-starter strains) | 4 µg/mL | 0.12 µg/mL | 0.5 µg/mL | 32 µg/mL | 4 µg/mL | 64 µg/mL | 8 µg/mL | 256 µg/mL | 4 µg/mL
Pediococcus acidilactici/pentosaceus/lolli IM704 (strain group: human milk or colostrum) | 4 µg/mL | 0.12 µg/mL | 1 µg/mL | 32 µg/mL | 8 µg/mL | 128 µg/mL | 16 µg/mL | 512 µg/mL | 8 µg/mL
Lacticaseibacillus paracasei IM1395 (strain group: probiotic strains) | 2 µg/mL | 0.12 µg/mL | 0.25 µg/mL | 2 µg/mL | 4 µg/mL | 16 µg/mL | 4 µg/mL | 64 µg/mL | 8 µg/mL
Pediococcus acidilactici/pentosaceus/lolli IM706 (strain group: human milk or colostrum) | 4 µg/mL | 0.12 µg/mL | 1 µg/mL | 32 µg/mL | 8 µg/mL | 128 µg/mL | 16 µg/mL | 256 µg/mL | 8 µg/mL
Pediococcus pentosaceus IM1294 (strain group: non-starter strains) | 4 µg/mL | 0.06 µg/mL | 0.5 µg/mL | 64 µg/mL | 8 µg/mL | 64 µg/mL | 8 µg/mL | 256 µg/mL | 8 µg/mL
Leuconostoc mesenteroides IM1378 (strain group: starter cultures) | 1 µg/mL | 0.5 µg/mL | 0.5 µg/mL | 2 µg/mL | < 0.5 µg/mL | 4 µg/mL | < 0.5 µg/mL | 4 µg/mL | 2 µg/mL
Lacticaseibacillus rhamnosus IM1101 (strain group: non-starter strains) | 2 µg/mL | 1 µg/mL | 0.25 µg/mL | 1 µg/mL | 2 µg/mL | 16 µg/mL | 4 µg/mL | 64 µg/mL | 8 µg/mL
Leuconostoc mesenteroides IM1360 (strain group: non-starter strains) | 2 µg/mL | 0.12 µg/mL | 0.25 µg/mL | 2 µg/mL | 2 µg/mL | 64 µg/mL | 2 µg/mL | 64 µg/mL | 8 µg/mL
Latilactobacillus curvatus IM1002 (strain group: non-starter strains) | 1 µg/mL | 0.12 µg/mL | 0.12 µg/mL | 1 µg/mL | 4 µg/mL | 32 µg/mL | 8 µg/mL | 64 µg/mL | 4 µg/mL
Lacticaseibacillus paracasei IM1290 (strain group: non-starter strains) | 2 µg/mL | 0.25 µg/mL | 0.25 µg/mL | 2 µg/mL | 16 µg/mL | 32 µg/mL | 32 µg/mL | 128 µg/mL | 8 µg/mL
Lactiplantibacillus plantarum IM563 (strain group: probiotic strains) | 0.5 µg/mL | 4 µg/mL | 1 µg/mL | 8 µg/mL | 8 µg/mL | 64 µg/mL | 8 µg/mL | 128 µg/mL | 4 µg/mL
Lactiplantibacillus paraplantarum IM1332 (strain group: non-starter strains) | 1 µg/mL | 8 µg/mL | 1 µg/mL | 16 µg/mL | 2 µg/mL | 32 µg/mL | 1 µg/mL | 32 µg/mL | 8 µg/mL
Lactiplantibacillus plantarum IM1348 (strain group: non-starter strains) | 0.25 µg/mL | 0.12 µg/mL | 0.5 µg/mL | 16 µg/mL | 2 µg/mL | 16 µg/mL | 4 µg/mL | 32 µg/mL | 4 µg/mL
Lacticaseibacillus paracasei IM1105 (strain group: non-starter strains) | 2 µg/mL | 0.5 µg/mL | 0.12 µg/mL | 1 µg/mL | 2 µg/mL | 16 µg/mL | 4 µg/mL | 64 µg/mL | 4 µg/mL
